Where “and” joins values, the source holds several entries; their conditions need not be identical. Equal entries are not always repeated.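 Interpolation was linear, between the two tested concentrations surrounding the appropriate level; five concentrations were tested over 48 hours in 96-well plates. GI50: concentration for 50% inhibition of growth. TGI marks complete inhibition of growth.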

For this assay, the system named is NCI-H322M lung. As to the kind of experiment: NCI tumour cell line growth inhibition, 48 h.
For `Cc1ccc(S(=O)(=O)OC2C(O)C(O)OC2C(c2cc(O)c3c(c2O)C(=O)c2ccccc2C3=O)c2cc(O)c3c(c2O)C(=O)c2ccccc2C3=O)cc1` (stereo unspecified), the TGI was > 10 µM.

For the molecule `COC(=O)/C=C(C)/C=C/C1OC(C)OCC1O` (stereo unspecified), the TGI was > 100 µM.

For `O=C(Nc1cc(C(F)(F)F)ccc1Cl)c1ccc(NC2=C(Cl)C(=O)N(Cc3ccccc3)C2=O)cc1`, the GI50 was 18.4 µM and the TGI was 58.6 µM.

Take `NC(=S)/N=C(/c1nc2ccc(Cl)cc2[nH]c1=O)C(O)c1ccccc1Cl` (stereo unspecified): the TGI is > 100 µM.

Turning to `CCC(=O)c1c(NOC2OCC(OC(C)=O)C(OC(C)=O)C2OC(C)=O)nc(OC)n(C)c1=O` (stereo unspecified), the TGI is > 100 µM.

Consider `COc1ccc(-c2ccncc2)cc1C(N)=O`, for which the GI50 is > 25 µM and the TGI was > 25 µM.

For `O=C1/C(=C\c2cccc(Oc3ccccc3)c2)SC(c2ccccc2)N1c1ccccc1` (stereo unspecified), the TGI is > 100 µM.

With `CC(C)Nc1cc(-c2c[nH]c(C(=O)N[C@H](CO)c3cccc(Cl)c3)c2)c(Cl)cn1`, the GI50 is 0.824 µM and 0.716 µM; the TGI is 16.6 µM and > 10 µM.

Take `Nc1nonc1-c1nc2cnccc2n1C1CC1`: the GI50 was 10.5 µM and the TGI was > 25 µM.

Regarding `COc1cc(OC)c(C(=O)/C=C/c2cc3c(cc2OCc2ccccc2)OC(C)(C)CC3)cc1CC=C(C)C`, the GI50 is 5.73 µM and the TGI came out at 21.9 µM.

For the molecule `COc1cc(F)c(F)c(Nc2ccc(I)cc2F)c1NS(=O)(=O)C1(C[C@H](O)CO)CC1`, the GI50 was 0.55 µM and the TGI is > 10 µM.

`O=C(/C=C/C12c3ccccc3C(c3ccccc31)C1C(=O)NC(=O)C12)c1ccc(Cl)cc1Cl` (stereo unspecified): the GI50 was 1.67 µM and the TGI turned out to be 3.05 µM.

Regarding `Brc1ccc(C[P+]2(c3ccccc3)CCCCC2)cc1`, the TGI is > 100 µM.

For the molecule `COc1cc2c(c(OC)c1OC)-c1ncc3c(OC)c(OC)c(OC)cc3c1C2`, the GI50 is 17.6 µM and the TGI was found to be 56.1 µM.

In turn, `COc1c(/C=C/C(C)(C)O)cc(C2CC(=O)c3c(O)cc(O)cc3O2)cc1CC=C(C)C` (stereo unspecified) came in with a TGI of 15.9 µM.

As for `Cc1ccc(NC=O)c(-c2c(N)[nH]c(=S)[nH]c2=O)c1`, the TGI is > 100 µM.

Molecule `CN(C)CCNC(=O)c1ccc(NCCCN(C)CCCNc2ccc(C(=O)NCCN(C)C)c3[nH]c4ccccc4c(=O)c23)c2c(=O)c3ccccc3[nH]c12` yielded a TGI of 0.436 µM.

As for `Cc1cnc2sn(-c3ccc([N+](=O)[O-])cc3)c(=O)c2c1`, the TGI was > 100 µM.

In the case of `COc1ccc(-n2c(N)c(C#N)[nH]c2=O)cc1`, the TGI is > 10 µM.

Take `CC(=O)Oc1ccc(C23c4ccccc4C2(OC(C)=O)c2cc(OC(C)=O)ccc23)cc1` (stereo unspecified): the GI50 was 13.5 µM and the TGI stood at 42 µM.

Take `O=C(/C=C/c1ccccc1)CSc1ncn[nH]1`: the TGI is > 100 µM.

Regarding `CC(C)CCC[C@@H](C)[C@H]1CC[C@H]2[C@@H]3CC[C@H]4C[C@@H](CCC=C(c5cc(Cl)c(O)c(C(=O)O)c5)c5cc(Cl)c(O)c(C(=O)O)c5)CC[C@]4(C)[C@H]3CC[C@]12C`, the TGI is > 100 µM.
